Laboratory results published in PubChem BioAssay AID1240 (Sanford-Burnham Center for Chemical Genomics, 2008).
Among all 50,000 compounds or so, about 800 (1.6%) showed an effect of 50% or more. Some of the results follow.

molecular target: Bcl-2-like protein 10 (Homo sapiens) (UniProt Q9HD36); test: TR3 peptide-Bcl-B binding displacers, biochemical primary FP assay, phenotype converters (AID 1240); settings: GST-Bcl-B / FITC-TR3 peptide fluorescence polarization; stronger effect = higher value; compound at 3.75 mg/L;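 further: 0% = Bcl-B with tracer peptide and DMSO and 100% = tracer peptide lacking Bcl-B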
Sequence of UniProt Q9HD36 (Q9HD36 whole entry, looked up): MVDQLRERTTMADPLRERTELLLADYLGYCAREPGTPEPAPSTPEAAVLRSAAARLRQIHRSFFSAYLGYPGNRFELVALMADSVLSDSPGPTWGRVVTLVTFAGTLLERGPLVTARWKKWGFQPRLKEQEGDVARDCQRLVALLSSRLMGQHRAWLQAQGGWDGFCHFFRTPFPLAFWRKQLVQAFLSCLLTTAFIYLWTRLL

Row | Structure (SMILES) | displacement [%]
1 | CCOC(=O)c1ccc(-c2ccc(/C=C3\C(=O)N(c4ccc(S(N)(=O)=O)cc4)N=C3C)o2)cc1 | 15.7
2 | O=C(/C=C/c1ccco1)NCC1CCCO1 (stereo unspecified) | -0.8
3 | NS(=O)(=O)c1cccc(NC(=O)/C=C/c2cccc([N+](=O)[O-])c2)c1 | -4.5
4 | CCc1cccc(C)c1NC(=O)C1C2CCC(O2)C1C(=O)O (stereo unspecified) | -8.3
5 | O=S(=O)(Cc1ccccc1)N1CCN(c2cccc(Cl)c2)CC1 | 7.1
6 | COc1cccc(OCCOc2ccccc2/C=C2/SC(=S)N(c3ccccc3)C2=O)c1 | 11.4
7 | C/C(CC(=O)Nc1ccc(Cl)c(C(F)(F)F)c1)=N\NC(=O)c1cnccn1 | -39.5
8 | CCOc1ccc(NC(=O)/C=C/c2ccccc2)cc1 | 13.2
9 | CN1C(=O)/C(=N/OC(=O)c2ccc(Br)cc2)c2ccccc21 | -11
10 | NC(=O)c1c(NC(=O)/C=C/c2ccccc2)sc2c1CCC2 | -3.5
11 | O=C(O)c1c(Cl)c(C(=O)O)c(C(=O)O)c(Cl)c1C(=O)O | -2.4
12 | CC(C)CN1C(=O)c2ccc(C(=O)Nc3ccc(O)cc3C(=O)O)cc2C1=O | 10.9
13 | C=CCc1cccc(/C=N/NC(=O)C(C)Nc2ccc(Br)cc2)c1O (stereo unspecified) | -13.2
14 | O=C(/C=C\Nc1ccccn1)c1ccc2c(c1)OCO2 | 21.6
15 | Nc1ccc[n+](CC(=O)c2ccccc2)c1 | 16.1
16 | CC(C)C(=O)N/N=C1/CC2CCC1(C)C2(C)C (stereo unspecified) | -53.6

Row | Structure (SMILES) | displacement [%]
17 | CC(C)CNC(=O)c1ccc(I)cc1 | 9.1
18 | CCC(=O)c1ccc(N2CCC(C)CC2)c(F)c1 | -4.2
19 | O=C(COC(=O)C1CCCN1C(=O)OCc1ccccc1)c1ccc(-c2ccccc2)cc1 (stereo unspecified) | 11.7
20 | CC(C(=O)N1c2ccccc2Sc2ccc(C(F)(F)F)cc21)N1C(=O)c2ccccc2C1=O (stereo unspecified) | 2.2
21 | COc1ccc(C=NCC2OCCc3ccccc32)c(OC)c1 (stereo unspecified) | 12.7
22 | CCOc1cccc(/C=N\NC(=O)Cc2cccn2C)c1O | -33.2
23 | COc1cccc(N2C(=O)c3ccc(C(=O)Nc4ccc(Br)cc4C(=O)O)cc3C2=O)c1 | -7.7
24 | CCc1ccc2oc(-c3ccc(C)c(N)c3)nc2c1 | 0.4
25 | CCC(=O)Nc1ccc(C(=O)Nc2c[nH]c(=O)[nH]c2=O)cc1 | 4.6
26 | CCc1ccc(OCc2nnc(NC(=O)Nc3ccc(Cl)c(Cl)c3)s2)cc1 | 0.8
27 | Cc1cc(C)nc(NC(=O)CCC(=O)O)c1 | -15.4
28 | CCc1ccc(OCC(=O)Nc2ccc(I)cc2Cl)cc1 | 18.1
29 | O=C(O)c1ccc(-c2nc3sc4c(c3c(=O)[nH]2)CCCC4)cc1 | -7
30 | O=C(c1ccccc1)c1cc2c(cc1Br)OCCCO2 | 1.1
31 | Cc1cc(OCc2nc(-c3ccccc3)no2)cc(C)c1Cl | 1.9
